# From article PMC6919601, “Identification of Plasmodium dipeptidyl aminopeptidase allosteric inhibitors by high throughput screening” (PLoS ONE, 2019)
# About 230 (0.21%) of roughly 110,000 compounds showed an effect of 50% or more. This is one part of the list.
# Target: DPAP1 (Plasmodium falciparum, UniProt Q8IIJ9)
# Assay: primary screen, percent inhibition; read by cleavage of a fluorogenic dipeptide substrate; higher = more effect of the substance
# Set-up: species or system P. falciparum D10 trophozoite lysates; single well
# 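Also: 30 min substrate incubation versus DMSO and 10 µM JCP410 controls.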
# Sequence of DPAP1 (Q8IIJ9 whole entry, looked up): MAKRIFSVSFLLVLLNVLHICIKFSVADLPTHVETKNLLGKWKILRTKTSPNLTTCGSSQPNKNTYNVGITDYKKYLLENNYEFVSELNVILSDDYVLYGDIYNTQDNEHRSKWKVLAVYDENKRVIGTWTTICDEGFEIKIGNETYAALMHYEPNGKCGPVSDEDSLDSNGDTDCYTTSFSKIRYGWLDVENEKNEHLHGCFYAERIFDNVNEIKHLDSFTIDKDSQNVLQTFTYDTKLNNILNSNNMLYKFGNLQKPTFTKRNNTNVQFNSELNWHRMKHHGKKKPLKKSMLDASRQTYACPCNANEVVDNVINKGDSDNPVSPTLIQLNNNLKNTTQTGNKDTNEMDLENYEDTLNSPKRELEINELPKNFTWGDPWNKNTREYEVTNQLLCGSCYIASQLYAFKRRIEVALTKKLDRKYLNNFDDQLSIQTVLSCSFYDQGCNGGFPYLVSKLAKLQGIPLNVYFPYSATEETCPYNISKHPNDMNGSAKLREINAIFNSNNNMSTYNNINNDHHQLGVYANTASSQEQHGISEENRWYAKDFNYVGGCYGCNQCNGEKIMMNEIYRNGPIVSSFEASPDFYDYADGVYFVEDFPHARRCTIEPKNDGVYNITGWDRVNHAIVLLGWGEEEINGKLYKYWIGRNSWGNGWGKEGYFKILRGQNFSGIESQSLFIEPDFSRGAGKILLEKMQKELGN
row,Structure (SMILES),% Inhibition @ 10 uM
1,COc1ccc(-c2cn3cccc(C)c3n2)cc1Br,5.37%
2,O=C(CN1N=C(c2ccccc2)CCC1=O)NCCCN1CCCCCC1,-4.83%
3,CCOc1ccc(/C=C2\N=C(c3ccc(Cl)c(Cl)c3)OC2=O)cc1,-4.5%
4,C#CCOc1c(Br)cc(/C=C2/NC(=O)N(Cc3ccccc3F)C2=O)cc1OC,-1.81%
5,CCOc1ccc(NC(=O)C(C)Oc2ccccc2)cc1 (centres unmarked),-5%
6,O=C(C1CC2CCC1C2)N1CCN(c2cccc(Cl)c2)CC1 (centres unmarked),2.05%
7,CC(C)c1ccc(NC(=O)C2CCCN2S(=O)(=O)c2ccc(Cl)cc2)cc1 (centres unmarked),5.17%
8,Cc1[nH]nc2c1C(c1cccc(OCc3ccc(F)cc3)c1)C(C#N)=C(N)O2 (centres unmarked),-0.68%
9,CCOc1ccccc1C1/C(=C(\O)OC2CCCCC2)C(C)=Nc2ncnn21 (centres unmarked),2.97%
10,N#Cc1nc(/C=C/c2ccc(F)cc2)oc1NCC1CCCO1 (centres unmarked),-0.808%
11,Cc1ccc(Cn2cc(CCCC(=O)N3CCOCC3)c3ccccc32)cc1,11%
12,CCSC1=C(C#N)C(c2ccccc2OC)C(C(=O)OC)C(=O)N1 (centres unmarked),2.05%
13,CC(=O)c1cccc(NC(=O)C23CCC(C)(c4nc5ccccc5nc42)C3(C)C)c1 (centres unmarked),-4.22%
14,CC(NC(=O)C12CC3CC(C1)CC(n1cncn1)(C3)C2)C12CC3CC(CC(C3)C1)C2 (centres unmarked),43.3%
15,COc1ccc(C2CC(=O)C(/C=N/Cc3ccc(Cl)c(Cl)c3)=C(O)C2)cc1 (centres unmarked),0.851%
16,CCN(CC)c1ccc2c(C)c([N+](=O)[O-])c(=O)oc2c1,-4.31%
17,CC(C)CS(=O)(=O)C1=NSC2=NC(=O)/C(=C\c3ccc(O)cc3)C(=N)N21,-1.58%
18,CN(Cc1ccccc1)C(=O)c1cnn2c1NC(c1cccs1)CC2C(F)(F)F (centres unmarked),1.8%
19,CCc1ccc2occ(CC(=O)Nc3sc4c(c3C(=O)NCc3cccnc3)CCC4)c2c1,1%
20,NC(=O)C1CCN(Cc2c(F)cccc2F)CC1,-5.31%
21,CC1(C)CC(=O)C(/C=N/Cc2cccnc2)=C(O)C1,4.54%

row,Structure (SMILES),% Inhibition @ 10 uM
1,C=CCNc1cc(C)nc2nncn12,-1.02%
2,CC(=O)c1ccc2c(c1)Cc1cc(C(C)=O)ccc1-2,-4.06%
3,CCCCNC(=O)NC(=O)c1c(Cl)cc(Cl)nc1Cl,0.503%
4,CC(=O)Nc1cccc(NC(=O)c2cccc(NC(=O)c3ccccc3)c2)c1,-3.1%
5,C1CN(C2CN3CCC2CC3)CCO1 (centres unmarked),1.57%
6,CCOc1cc(C2N=C(N)Nc3nc4ccccc4n32)ccc1O (centres unmarked),4.94%
7,Cc1cc(NC(=O)CN2CCCCC2)c2ccccc2n1,0.266%
8,Cc1oc(-c2ccc(Cl)cc2)nc1CN1CCC(C(=O)NCCN(C)C)CC1,2.37%
9,CC(=O)/C(=C\c1ccccc1)S(=O)(=O)c1ccccc1,4.39%
10,O=C(NCC1CCCO1)c1cc2n(n1)C(C(F)(F)F)CC(c1ccc(Br)cc1)N2 (centres unmarked),-3.63%
11,CC1(C)CC(=O)C2=C(C1)N(c1cccc(Br)c1)C(N)=C(C#N)C2c1ccsc1 (centres unmarked),0.726%
12,CC(C)c1ccc(C2c3c(oc4ccccc4c3=O)C(=O)N2CCCN2CCOCC2)cc1 (centres unmarked),3.93%
13,CS(=O)(=O)CCC(C(=O)N1CCOCC1)N1Cc2ccccc2C1=O (centres unmarked),-2.41%
14,CCOCCCNC(=O)C1CC(=O)N(CCc2ccccc2)C1 (centres unmarked),-0.0542%
15,Cc1ccc(C(=O)N/C(=C/c2ccc(-c3ccc(Cl)cc3)o2)C(=O)NCCO)cc1,2.45%
16,CC1=C(C(=O)OCCC(C)C)C(c2ccccc2Cl)NC(=O)N1 (centres unmarked),5.92%
17,CCc1ccc2nc(N)sc2c1,8.71%
18,COC(=O)c1cc2sccc2n1Cc1cc(=O)n2ccccc2n1,-7.84%
19,CCOc1ccc([N+]2=C3CCCCN3C(O)(c3ccc(Cl)cc3)C2)cc1 (centres unmarked),4.92%
20,CCOC(=O)N1CCN(C(=O)Cn2cc3c(n2)-c2c(oc(C(=O)N4CCCC4)c2C)CC3)CC1,0.335%
21,CCn1cc2c(n1)-c1c(oc(C(=O)NCc3cccc(Br)c3)c1C)CC2,13.8%

row,Structure (SMILES),% Inhibition @ 10 uM
1,Brc1ccc2[nH]cc(-c3nnc4ccc5ccccc5n34)c2c1,3.65%
2,Cc1cc(Cl)ccc1NC(=O)c1ccc(CN2CCOCC2)cc1,-5.99%
3,CC1CCN(C(=O)Cn2ncn3c(cc4sccc43)c2=O)CC1,0.137%
4,c1ccc2cc(-c3cn4ccsc4n3)ccc2c1,-4.03%
5,COc1ccccc1N1CCN(CCCCN2C(=O)C3CCCCN3C2=O)CC1 (centres unmarked),1.39%
6,CCOc1ccccc1NC(=O)c1c(Cl)c(C)nn1C,-1.07%
7,O=C(CSc1nc(O)c2c(n1)CCN(Cc1ccccc1)C2)NCc1ccccc1,3.92%
8,CC1CCCC(C)N1C(CNS(=O)(=O)c1ccc(Cl)cc1)c1ccccc1 (centres unmarked),-0.671%
9,CCc1cccc2c(/C=C3\S/C(=N/C)N(C)C3=O)c[nH]c12,-10.8%
10,COc1ccc(C(=O)NC2(C(F)(F)F)C(=O)Nc3c2c(=O)[nH]c(=O)n3-c2ccc(OC)cc2)cc1 (centres unmarked),-3.18%
11,O=S(=O)(Nc1cccc(-c2cn3cccnc3n2)c1)c1cccc2ccccc12,-3.45%
12,CC(C)C(O)CN1C=C(C#N)C(=O)NC1NC1CCCCC1 (centres unmarked),4.28%
13,O=S(=O)(Nc1nc2ccccc2nc1Nc1ccc(Cl)cc1)c1ccccc1,3.16%
14,CN1CCN(C(=O)CCN2C(=O)c3cccc4cccc(c34)C2=O)CC1,-6.62%
15,CCc1cc(C)cc(OCCOc2ccc(/C=C3/C(=N)N4OC(C)=CC4=NC3=O)cc2OC)c1,-5.1%
16,COc1cc(/C=C2/C(=N)N3C(SC)=NSC3=NC2=O)ccc1OC(C)C,0.287%
17,O=C(O)[C@H]1CCCC[C@H]1C(=O)Nc1ccc(S(=O)(=O)N2CCc3ccccc32)cc1,2.67%
18,COc1ccc(S(=O)(=O)Nc2ccc(OC)cc2OC)cc1,2.08%
19,CCOc1ccc(CNC(=O)CN2C(=O)C(c3ccccc3)Oc3cccnc32)cc1 (centres unmarked),8.35%
20,O=S(=O)(Nc1ccc(O)c(Br)c1)c1ccc(Cl)cc1,3.25%
